Data from PMC4336329 (PLoS ONE, 2015).
In all, about 310,000 compounds went through this assay and about 2,200 (0.71%) showed an effect of 50% or more. The effect is printed as a negative number. Some of the results follow.

molecular target: human ether-à-go-go-related gene (hERG) potassium channel (human, UniProt Q12809); assay: primary screen, population patch clamp on CHO cells stably expressing hERG
Sequence (Q12809 whole entry, looked up): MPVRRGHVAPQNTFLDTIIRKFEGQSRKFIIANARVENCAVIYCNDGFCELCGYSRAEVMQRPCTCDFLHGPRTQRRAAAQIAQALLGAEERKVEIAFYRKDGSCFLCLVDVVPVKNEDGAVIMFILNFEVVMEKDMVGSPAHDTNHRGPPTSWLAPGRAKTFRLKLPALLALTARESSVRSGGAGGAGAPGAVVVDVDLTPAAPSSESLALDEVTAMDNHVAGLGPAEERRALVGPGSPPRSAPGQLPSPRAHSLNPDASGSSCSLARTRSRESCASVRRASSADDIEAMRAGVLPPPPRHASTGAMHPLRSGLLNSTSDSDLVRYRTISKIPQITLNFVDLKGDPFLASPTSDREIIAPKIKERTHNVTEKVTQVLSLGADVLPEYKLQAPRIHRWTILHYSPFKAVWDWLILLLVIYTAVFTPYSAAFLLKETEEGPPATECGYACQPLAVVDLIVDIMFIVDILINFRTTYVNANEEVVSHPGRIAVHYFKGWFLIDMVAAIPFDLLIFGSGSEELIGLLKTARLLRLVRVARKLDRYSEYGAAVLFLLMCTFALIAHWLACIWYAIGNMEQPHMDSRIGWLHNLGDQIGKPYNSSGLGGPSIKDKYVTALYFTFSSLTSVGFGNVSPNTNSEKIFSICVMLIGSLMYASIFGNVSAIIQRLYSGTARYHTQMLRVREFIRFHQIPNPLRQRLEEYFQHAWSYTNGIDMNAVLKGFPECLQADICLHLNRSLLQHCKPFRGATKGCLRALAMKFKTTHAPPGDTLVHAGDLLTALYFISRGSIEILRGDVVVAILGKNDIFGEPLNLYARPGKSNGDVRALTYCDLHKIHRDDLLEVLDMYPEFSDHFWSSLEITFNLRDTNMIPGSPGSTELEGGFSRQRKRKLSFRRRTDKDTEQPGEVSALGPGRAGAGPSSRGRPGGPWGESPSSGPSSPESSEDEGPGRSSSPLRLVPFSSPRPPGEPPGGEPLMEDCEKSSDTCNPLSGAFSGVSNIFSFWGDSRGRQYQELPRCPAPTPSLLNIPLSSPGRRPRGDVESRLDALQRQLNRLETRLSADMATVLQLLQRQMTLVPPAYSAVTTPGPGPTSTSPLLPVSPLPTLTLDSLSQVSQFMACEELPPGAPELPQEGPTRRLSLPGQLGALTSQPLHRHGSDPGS

Compound	hERG current change (%, negative = inhibition) at 1uM [%]
COC(=O)Cc1c(C)nc2nc(Cc3ccccc3)[nH]n2c1=O	13.7
Cc1ccc(Sc2c(C#N)c(-c3ccccc3)nn2C)cc1	-1.15
Cc1cc(C)nc(-n2nc(C)cc2NC(=O)CN2CCC(C)CC2)n1	-6.44
CCOC(=O)c1c(NC(=O)COc2ncnc3ccccc23)sc(C)c1CC	0.213
COc1cc(C(=O)NNC(=S)NC(=O)c2ccc(Cl)cc2)cc(OC)c1OC	5.6
N#Cc1c(NC(=O)CN2CCCCC2)sc2c1CCC2	6.1
O=C1/C(=C\c2cccs2)SC(=S)N1C1CCS(=O)(=O)C1 (stereo not shown)	2.81
N#CC1(NC(=O)CN2C(=O)c3ccccc3C2=O)CCCCC1	0.0056
CC(C)CC1=NN(C(=O)c2cccnc2)C(O)(C(F)(F)F)C1 (stereo not shown)	15.4
Cc1ccccc1OCc1ccc(C(=O)N2CCOCC2)o1	12.3
Cc1onc(-c2ccccc2)c1-c1ccc(S(N)(=O)=O)cc1	5.67
COc1ccccc1OCC(=O)N1CCNC1=O	5.75
O=[N+]([O-])c1ccc(N2CCc3ccccc3C2)nc1	9.14
O=C(COc1ccc(F)cc1)N(Cc1cccc(Br)c1)C1CCS(=O)(=O)C1 (stereo not shown)	11.2
COc1cc(OC)cc(-c2c(-c3ccc(F)cc3)c3cc(Br)ccc3n2C)c1	-3.32
O=C(CN1CCCCCC1)Nc1ccc(Cl)cc1F	14.6
COC(=O)c1cc(NC(=O)Cc2ccccc2[N+](=O)[O-])cc(C(=O)OC)c1	9.41
CCCc1cc(Nc2cccc(OC)c2)n2ncnc2n1	-14.7
Cc1ccccc1NC(=O)C1C2/C=C\CCCCC21 (stereo not shown)	8.68
Cc1ccc2nc(SCC(=O)Nc3cccc([N+](=O)[O-])c3)[nH]c2c1	3.12
Cc1oc2cc(Br)c(O)c(Br)c2c1C(=O)c1ccccc1	4.92
COc1ccc(C)cc1S(=O)(=O)N1CCN(C)CC1c1ccccc1.Cl (stereo not shown)	10.6
Cc1ccc(NC(=O)C2CCN(S(=O)(=O)c3ccc4c(c3)NC(=O)CO4)CC2)cc1	-13.4
CC(C)(C)n1nc2c(c1NC(=O)c1cc(Cl)ccc1[N+](=O)[O-])CS(=O)(=O)C2	16.9
C=CCOC(=O)C1=C[C@@H](c2cn(C(C)=O)c3ccccc23)C[C@@H](OCCCCO)O1	4.48
